In PubChem BioAssay AID651820 (National Center for Advancing Translational Sciences (NCATS), 2012):
About 12,000 (3.5%) of roughly 340,000 compounds were called active. Inconclusive results, whose numbers are uncertain, are shown with a selection of clear calls. Calls come from the whole dose curve; as a rule, active = well fitted inhibition curve with a large enough effect; inconclusive = small, poorly fitted or top-dose-only effect, or another doubt; inactive = no such curve, though single readings can be large or run the other way. No potency is given beside an inconclusive call; the fits are too rough.

Test: qHTS Assay for Inhibitors of Hepatitis C Virus (HCV)
Details: Huh7.5.1 HCVcc-Cre (HCVcc is cell-culture hepatitis C virus) infection, luciferase reporter, 44 h; activity change, negative = inhibition: at 41.8 µM (top of the series) unless noted
Method in brief: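 After 44 h co-culture of compound, cells and HCVcc-Cre (~0.5 moi), substrate is added for 15 min at room temperature and luciferase measured over 15 sec. Cells were seeded at 1,000/well and pre-cultured 4 h.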
% is set by controls: 0 for no effect and ±100 for the full control effect; potency is the fitted concentration of half-maximal effect; tags give direction and shape of the fitted curve.

SMILES	activity change, negative = inhibition	Potency
O=C1CC(N2CCC(c3nc4ccccc4[nH]3)CC2)C(=O)N1Cc1ccccc1 (stereo not given)	inactive: 0.903%	
O=C(Nc1ccc(OCc2ccccc2Cl)cc1)c1cccnc1		inconclusive [inhibitor, partial curve]
CCCN(CCC)CC(=O)Nc1cccc2c1OCO2		inconclusive [inhibitor, single point]
O=C(Nc1ccc(Br)cc1)c1ccc(F)c(S(=O)(=O)NCc2cccs2)c1		active: 5.01 µM
COc1cc(-c2cc(N)n(S(=O)(=O)c3ccc(F)cc3)n2)cc(OC)c1OC		inconclusive [inhibitor, single point]
O=C(O)C1C2C=CC(O2)C1C(=O)Nc1ccc(S(=O)(=O)Nc2ccccc2)cc1 (stereo not given)	inactive: -25.2%	
O=C(N/N=C/c1cccc(NC(=O)c2ccc(Cl)cc2)c1)c1ccc(O)cc1		inconclusive [inhibitor, partial curve]
CCCCn1c2ccccc2c2nnc(SCCN3CCCCC3)nc21		inconclusive [inhibitor, partial curve]
Cc1cccc(C(=O)Nc2ccc(NC(=O)CN3CCOCC3)cc2)c1	inactive: 5.13%	
Cc1cc(N/N=C/c2c(O)ccc3ccccc23)nc(-c2ccccc2O)n1		inconclusive [inhibitor, partial curve, poor fit]
Cc1cc(NC(=O)Nc2ccccc2F)ccc1Br		active: 12.6 µM
C=CCn1c(SCc2n[nH]c(=S)n2-c2ccccc2)nnc1-c1ccccc1	inactive: -1.61%	
Cc1ccc(NC(=O)CS(=O)(=O)c2cn(C)c3ccccc23)c(C)c1		inconclusive [inhibitor, single point]
S=C(Nc1ccc(Cl)c(Cl)c1)N1CCCC1		inconclusive [inhibitor, single point]
Cc1cccc(Cn2c(=O)c3c(nc4n3CCCN4Cc3ccccc3)n(C)c2=O)c1		active: 11.2 µM
O=C(Nc1nc(-c2cc(F)ccc2F)cs1)c1cccc(N2C(=O)CCC2=O)c1		inconclusive [inhibitor, partial curve, poor fit]
CCNc1nc(NC(C)C)nc(SCCOC(=O)c2ccccc2)n1		inconclusive [inhibitor, single point]
COc1ccc(/C=N\NC(=O)c2ccccc2Br)cc1COc1c(F)c(F)cc(F)c1F		active: 5.01 µM
COc1ccccc1NC(=O)C(C)OC(=O)/C=C/c1ccc2ccccc2n1 (stereo not given)		inconclusive [inhibitor, partial curve, poor fit]
Nc1c(C(=O)NCc2ccccc2)nnn1Cc1cccc(Cl)c1		inconclusive [inhibitor, single point]
CCC(=O)c1ccc(OCC(=O)N2CCN(CC(=O)Nc3ccccc3C(F)(F)F)CC2)cc1		active: 12.6 µM
O=c1nccc(N/N=C/c2ccccc2O)[nH]1		inconclusive [inhibitor, full curve, poor fit]
COc1ccccc1N1CCN(C(=O)c2ccc3[nH]c4c(c3c2)CCCC4)CC1		inconclusive [inhibitor, single point]
O=C(NCCNC(=O)c1cc(OCC(F)(F)F)ccc1OCC(F)(F)F)Nc1ccc(OC(F)(F)F)cc1		inconclusive [inhibitor, full curve]

SMILES	activity change, negative = inhibition	Potency
O=C(NCc1ccccc1)c1cc(-c2cccs2)on1	inactive: -8.41%	
CCO[C@@H]1OC(C(=O)N2CCCCCCC2)=C[C@H](c2csc3ccccc23)[C@H]1CCCO	inactive: -15.7% [at 8.37 µM]	
CC1CCC2(CC1)NC(=O)N(CC(=O)N1c3ccccc3CC1C)C2=O (stereo not given)	inactive: 19.5%	
C=CC[N+](C)(C)c1ccc(CCC(=O)CCc2ccc([N+](C)(C)CC=C)cc2)cc1	inactive: -4.36%	
CN(C)C1(c2nnnn2CCOC(=O)Nc2ccc(Cl)cc2)CCCCC1		inconclusive [inhibitor, single point]
NC(N)=NN=C1c2ccccc2-c2ccccc21	inactive: -1.46%	
Cc1ccc(N2CCN(c3ccc(NCc4nc5ccccc5n4C)cc3)CC2)cc1		inconclusive [inhibitor, single point]
COc1ccc(OCc2ccc(-c3nc4ccccc4c(=O)n3N)o2)cc1		inconclusive [inhibitor, single point]
Cc1nn2c(-c3ccncc3)ccnc2c1Br	inactive: 6.72%	
Cc1ccnc2c(N3C(=O)C4C5c6ccccc6C(c6ccccc65)C4C3=O)cccc12 (stereo not given)		inconclusive [inhibitor, single point]
CCCC[N+](CC#CCO)(CC#Cc1ccccc1)CCCC	inactive: 14.3%	
CCN(CC)CCCN1C=C2C(=O)C(C)(OC(=O)C3CCCC3)C(=O)C(c3ccccc3)=C2C=C1CCCC(=O)OC (stereo not given)		inconclusive [inhibitor, single point]
O=C(OCc1ccc([N+](=O)[O-])cc1)c1ccc2ccccc2n1	inactive: -7.93%	
O=C(CSCc1ccccc1)NNC(=S)Nc1cccc(Cl)c1Cl	inactive: 11.7%	
Nc1cc(N)nc(SCC(=O)c2ccc3c(c2)NC(=O)CO3)n1	inactive: -1.25%	
CN(C)CCCN(C(=O)COc1ccccc1)c1nc2ccc(Cl)cc2s1		inconclusive [inhibitor, partial curve]
CCOC(=O)c1c(COc2ccccc2)oc2ccc(O)cc12		inconclusive [inhibitor, single point]
Cc1cc(N(C)/N=C/c2ccccc2O)nc(-c2ccccc2O)n1		inconclusive [inhibitor, partial curve]
CCOC(=O)c1cnn2c(C)cc(-c3ccc(F)cc3)nc12		inconclusive [inhibitor, single point]
COc1cc(/C=N/NC(=O)COc2c(C)cc([N+](=O)[O-])cc2C)ccc1OC(=O)c1ccccc1Br		inconclusive [inhibitor, full curve]
O=C(O)CCN1C(=O)/C(=C2\C(=O)N(Cc3ccc(F)cc3)c3ccccc32)SC1=S		inconclusive [inhibitor, single point]
COc1ccc(CN2CCN(CCSc3ccc(C)cc3)CC2)c(OC)c1OC		active: 14.1 µM
CN(c1ccccc1)S(=O)(=O)c1cc(C(=O)Nc2nc3ccccc3[nH]2)ccc1Cl		inconclusive [inhibitor, single point]
O=C(C1CC1)N1N=C(c2ccc(F)cc2)CC1(O)C(F)(F)F (stereo not given)	inactive: -13.7%	

SMILES	activity change, negative = inhibition	Potency
CCOC(=O)c1ccccc1NC(=S)N1CCC(N2CCCCC2)CC1		inconclusive [inhibitor, partial curve]
CC(=O)c1c(C)[nH]c(C(=O)CSc2nnc(-c3ccccc3)o2)c1C		active: 8.91 µM
Cc1ccc2nc(-c3ccncc3)c(NC3CCCCC3)n2c1		inconclusive [inhibitor, single point]
COc1ccccc1CNC(=O)COC(=O)c1n[nH]c2ccccc12		inconclusive [inhibitor, single point]
O=C(O)c1cc2ccccc2c(=O)s1		inconclusive [inhibitor, single point]
O=C1c2cccc(OCc3ccc(F)cc3)c2CCN1Cc1ccc(F)cc1		active: 6.31 µM
O=C(CCNC(=O)C1CCN(S(=O)(=O)c2ccc(F)cc2)CC1)NCc1ccc(Cl)cc1	inactive: 2.4%	
Cc1nc(NS(=O)(=O)c2cccc([N+](=O)[O-])c2)sc1C(C)(C)C		inconclusive [inhibitor, single point]
CCOc1ccc(-n2c(SCC(=O)NC3CCS(=O)(=O)C3)nnc2-c2cccnc2)cc1 (stereo not given)		inconclusive [inhibitor, single point]
COc1ccccc1S(=O)(=O)CC(O)COc1ccccc1Cl (stereo not given)	inactive: 7.36%	
Cc1ccc(C)c(OCC(=O)NCCNC(=O)COc2cc(C)ccc2C)c1		inconclusive [inhibitor, full curve]
COc1cc(/C=C/C(=O)OCC(=O)Nc2ccc3c(c2)OCO3)ccc1O		inconclusive [inhibitor, partial curve]
C=CCn1c(SCc2cc(=O)n3ccsc3n2)nc2sc(C)c(C)c2c1=O		inconclusive [inhibitor, partial curve]
Cc1ccc2nsnc2c1S(=O)(=O)NCc1ccncc1		inconclusive [inhibitor, single point]
Clc1cc(Cl)cc(Nc2ncn[nH]2)c1		inconclusive [inhibitor, single point]
CC(C)c1nc(SCC(=O)Nc2c[nH]c(=O)[nH]c2=O)c2cnn(-c3ccccc3)c2n1		inconclusive [inhibitor, partial curve, poor fit]
CCN(CC(=O)Nc1ccccc1OC)CC(=O)Nc1c(Cl)ccc(C)c1Cl		inconclusive [inhibitor, single point]
COC(=O)c1cn(C(=O)c2ccccc2Cl)c2ccccc12		inconclusive [inhibitor, single point]
O=Cc1c(OCc2ccccc2)ccc2ccccc12		inconclusive [inhibitor, single point]
CCN(C(=O)COC(=O)CCOc1ccc(C(C)(C)C)cc1)c1c(N)n(Cc2ccccc2)c(=O)[nH]c1=O	inactive: -8.4%	
COc1cccc(NC(=O)NCCCSC2CCCCC2)c1		inconclusive [inhibitor, single point]
Cc1cccc(NC(=O)CSCC(=O)N(CCC(C)C)c2c(N)n(Cc3ccccc3)c(=O)[nH]c2=O)c1		inconclusive [inhibitor, single point]
